Measured values taken from the supplement of paper PMC11369174, “Proteome-scale characterisation of motif-based interactome rewiring by disease mutations” (Molecular Systems Biology, 2024).
Some of the results follow. The data scatter; read single values as rough.

How the values were obtained:
Assay in all cases: mutation enrichment score (mutant vs wild-type peptide binding to bait); baits are purified protein domains named by gene / domain / UniProt id / residues; peptides come from disordered regions of human proteins; higher = mutation enhances binding relative to wild type
KPNA4_Arm__O00629_68_487 = conditions: wild-type window: …
KPNA4_Arm__O00629_68_487, sequence (chain, as listed by the source): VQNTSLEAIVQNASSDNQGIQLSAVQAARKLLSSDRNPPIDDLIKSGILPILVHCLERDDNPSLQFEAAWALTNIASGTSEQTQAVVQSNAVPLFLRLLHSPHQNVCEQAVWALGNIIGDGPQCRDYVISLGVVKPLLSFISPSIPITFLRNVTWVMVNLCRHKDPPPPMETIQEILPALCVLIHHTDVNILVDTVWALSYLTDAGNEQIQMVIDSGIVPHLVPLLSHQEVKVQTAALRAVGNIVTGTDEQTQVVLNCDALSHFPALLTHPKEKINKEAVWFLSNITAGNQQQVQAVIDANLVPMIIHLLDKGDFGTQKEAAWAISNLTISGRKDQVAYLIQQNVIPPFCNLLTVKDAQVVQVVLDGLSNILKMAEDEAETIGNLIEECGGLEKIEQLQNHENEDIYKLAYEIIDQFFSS

OXSR1___O95747_434_527 = conditions: number of wild-type / mutant comparisons summed (bounds the score): 6; paper call: no_effect; wild-type window: …
[1] = molecular target: T1, SIN3A_PAH__Q96ST3_295_383; conditions: number of wild-type / mutant comparisons summed (bounds the score): 5; paper call: no_effect; wild-type window: …
T1 chain: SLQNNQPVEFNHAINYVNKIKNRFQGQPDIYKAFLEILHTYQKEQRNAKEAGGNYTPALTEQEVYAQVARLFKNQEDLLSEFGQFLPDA

[2] = molecular target: KPNB1_Heat_1_Q14974_127_876; conditions: number of wild-type / mutant comparisons summed (bounds the score): 2; paper call: no_effect; wild-type window: …
KPNB1_Heat_1_Q14974_127_876, sequence (chain, as listed by the source): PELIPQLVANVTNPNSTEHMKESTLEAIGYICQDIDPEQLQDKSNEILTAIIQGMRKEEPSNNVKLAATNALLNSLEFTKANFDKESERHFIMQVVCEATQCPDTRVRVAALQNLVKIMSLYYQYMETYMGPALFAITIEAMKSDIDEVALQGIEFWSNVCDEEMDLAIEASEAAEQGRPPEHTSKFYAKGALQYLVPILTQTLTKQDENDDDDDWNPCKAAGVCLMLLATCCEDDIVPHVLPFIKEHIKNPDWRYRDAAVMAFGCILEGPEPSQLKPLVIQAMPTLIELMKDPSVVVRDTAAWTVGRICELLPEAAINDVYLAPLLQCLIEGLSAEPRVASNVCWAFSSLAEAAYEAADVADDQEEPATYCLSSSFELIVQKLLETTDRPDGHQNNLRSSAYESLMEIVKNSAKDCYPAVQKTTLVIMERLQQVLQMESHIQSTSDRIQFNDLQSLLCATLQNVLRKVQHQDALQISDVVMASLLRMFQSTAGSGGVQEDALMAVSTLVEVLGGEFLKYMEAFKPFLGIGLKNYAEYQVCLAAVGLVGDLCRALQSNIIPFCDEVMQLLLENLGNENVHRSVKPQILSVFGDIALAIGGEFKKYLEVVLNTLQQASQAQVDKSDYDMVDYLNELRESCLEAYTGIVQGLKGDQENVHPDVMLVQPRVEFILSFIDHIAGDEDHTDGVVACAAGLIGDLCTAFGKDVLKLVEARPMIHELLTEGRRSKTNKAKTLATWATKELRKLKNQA

[3] = molecular target: Keap1_KELCH__Q14145_321_609; conditions: number of wild-type / mutant comparisons summed (bounds the score): 6, wild-type window: …
Keap1_KELCH__Q14145_321_609, sequence (chain, as listed by the source): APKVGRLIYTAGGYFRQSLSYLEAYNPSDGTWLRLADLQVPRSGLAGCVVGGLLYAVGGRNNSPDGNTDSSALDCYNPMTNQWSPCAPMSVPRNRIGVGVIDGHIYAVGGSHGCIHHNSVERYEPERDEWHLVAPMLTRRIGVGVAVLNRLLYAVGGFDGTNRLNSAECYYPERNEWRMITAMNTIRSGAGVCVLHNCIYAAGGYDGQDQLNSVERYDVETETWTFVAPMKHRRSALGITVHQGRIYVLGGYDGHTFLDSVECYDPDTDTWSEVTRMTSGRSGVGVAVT

[4] = number of wild-type / mutant comparisons summed (bounds the score): 9, paper call: diminished
[5] = number of wild-type / mutant comparisons summed (bounds the score): 9, paper call: no_effect
[6] = number of wild-type / mutant comparisons summed (bounds the score): 18, paper call: no_effect

Q: For HIRYNPLQDEWVLVSAHRMKQPWQGQVEPQLLKTVPRHDPL [R51Q R51Q], which mutation enrichment score (KPNA4_Arm__O00629_68_487; [4]) is on record?
A: -6

Q: Which mutation enrichment score (KPNA4_Arm__O00629_68_487; [4]) does the source give for RYNPLQDEWVLVSAHRMKRPRQGQVEPQLLKTVPRHDPLNP [W53R W53R] here?
A: -6

Q: PQIIKHKALDLDDRWQFKRSQLLDTQDKRSKADTGSSNQDK [R361Q R361Q] was tested. Which mutation enrichment score (KPNA4_Arm__O00629_68_487; [4]) did it give?
A: -6

Q: Which mutation enrichment score (KPNA4_Arm__O00629_68_487; [4]) does the source give for MAENLLDGPPNPKRAKLSSPEFSANDSTDFGSL [K13E K13E] here?
A: -6

Q: How did the mutation enrichment score (KPNA4_Arm__O00629_68_487; [5]) turn out when QATENKVKNLTEEMAALDESMARLTKEKKALQEAHQQALGD [V1038M V1038M] was run?
A: -4

Q: For LASFLVYLAEKGENDHFDTYTDALWWGLITLTTIGYGDKYP [A265T A265T], which mutation enrichment score (KPNA4_Arm__O00629_68_487; [5]) is on record?
A: 1

Q: For SLPEEDVAEIQHAEEFLIKPKSKVAKLDTSQWPLLLKNFDK [E41K E41K], which mutation enrichment score (KPNA4_Arm__O00629_68_487; [5]) is on record?
A: -4

Q: For PEEDVAEIQHAEEFLIKPESEVAKLDTSQWPLLLKNFDKLN [K43E K43E], which mutation enrichment score (KPNA4_Arm__O00629_68_487; [5]) is on record?
A: -4

Q: For EEFLIKPESKVAKLDTSQWPVLLKNFDKLNVRTTHYTPLAC [L54V L54V], which mutation enrichment score (KPNA4_Arm__O00629_68_487; [5]) is on record?
A: 2.1

Q: For IQHAEEFLIKPESKVAKLDTYQWPLLLKNFDKLNVRTTHYT [S50Y S50Y], which mutation enrichment score (KPNA4_Arm__O00629_68_487; [5]) is on record?
A: -3.9

Q: With EIQHAEEFLIKPESKVAKLDMSQWPLLLKNFDKLNVRTTHY [T49M T49M] as the binder, how does the mutation enrichment score (KPNA4_Arm__O00629_68_487; [5]) read?
A: 1.8

Q: For DEENQEMSSCKSARIETSCSVLEQTQPATPSLWKNKEQHLS [L489V L489V], which mutation enrichment score (KPNA4_Arm__O00629_68_487; [5]) is on record?
A: 1.9

Q: With EDLQELNDRLAVYIDRVRSLGTENAGLRLRITESEEVVSRE [E53G E53G] as the binder, how does the mutation enrichment score (KPNA4_Arm__O00629_68_487; [5]) read?
A: 5

Q: With NPLQDEWVLVSAHRMKRPWQCQVEPQLLKTVPRHDPLNPLC [G55C G55C] as the binder, how does the mutation enrichment score (KPNA4_Arm__O00629_68_487; [5]) read?
A: -1.8

Q: How did the mutation enrichment score (KPNA4_Arm__O00629_68_487; [5]) turn out when KNKIQLEAKVKEMNERLEDEKEMNAELTAKKRKLEDECSEL [E930K E930K] was run?
A: -4

Q: With KNKIQLEAKVKEMNERLEDEQEMNAELTAKKRKLEDECSEL [E930Q E930Q] as the binder, how does the mutation enrichment score (KPNA4_Arm__O00629_68_487; [5]) read?
A: -3.3

Q: Which mutation enrichment score (KPNA4_Arm__O00629_68_487; [5]) does the source give for NKIQLEAKVKEMNERLEDEEGMNAELTAKKRKLEDECSELK [E931G E931G] here?
A: -4

Q: How did the mutation enrichment score (KPNA4_Arm__O00629_68_487; [5]) turn out when NKIQLEAKVKEMNERLEDEEKMNAELTAKKRKLEDECSELK [E931K E931K] was run?
A: -3.5

Q: For LEAKVKEMNERLEDEEEMNAKLTAKKRKLEDECSELKRDID [E935K E935K], which mutation enrichment score (KPNA4_Arm__O00629_68_487; [5]) is on record?
A: -4

Q: Which mutation enrichment score (KPNA4_Arm__O00629_68_487; [5]) does the source give for LEAKVKEMNERLEDEEEMNAVLTAKKRKLEDECSELKRDID [E935V E935V] here?
A: -4

Q: For EMNERLEDEEEMNAELTAKKHKLEDECSELKRDIDDLELTL [R941H R941H], which mutation enrichment score (KPNA4_Arm__O00629_68_487; [5]) is on record?
A: -4

Q: EMNERLEDEEEMNAELTAKKPKLEDECSELKRDIDDLELTL [R941P R941P] was tested. Which mutation enrichment score (KPNA4_Arm__O00629_68_487; [5]) did it give?
A: -4

Q: For SGSAMNVVFSEDEMKKFLEEVTRVSQEHPVVLTKFVEGARE [A1155V A1155V], which mutation enrichment score (KPNA4_Arm__O00629_68_487; [5]) is on record?
A: 2

Q: How did the mutation enrichment score (KPNA4_Arm__O00629_68_487; [5]) turn out when ESSLILKASEQGDSMLGDLLASDCTTGSGSGLPFLVQRTVA [D179A D179A] was run?
A: 2

Q: What about the mutation enrichment score (OXSR1___O95747_434_527) of the same binder?
A: 2

Q: PQIPAERDREPSKLKRSYSSRDITQAIQEEEKRKPTVTPTV [P720R P720R] was tested. Which mutation enrichment score (KPNA4_Arm__O00629_68_487; [5]) did it give?
A: 2

Q: Which mutation enrichment score (KPNA4_Arm__O00629_68_487; [5]) does the source give for MVAGMLGLREEKSEDQDLQGEKDKPLK [G7E G7E] here?
A: 2

Q: Which results are given for VPPSPTFSEPGMVGATEGTRSGLEELYWLATLQQQLGAGEA [P67S P67S]?
A: mutation enrichment score (KPNA4_Arm__O00629_68_487; [5]): 2; mutation enrichment score [1]: -3.7

Q: MPPAAPARLALALGLGLWLGQLAGGPGRGCGPC [L13Q L13Q] was tested. Which mutation enrichment score (KPNA4_Arm__O00629_68_487; [5]) did it give?
A: 2

Q: AQLYQHQLNPTLLQQQNKRPCTRITDDQLRVLRQYFDINNS [R2149C R2149C] was tested. Which mutation enrichment score (KPNA4_Arm__O00629_68_487; [5]) did it give?
A: -1

Q: Which mutation enrichment score (KPNA4_Arm__O00629_68_487; [5]) does the source give for APSFQGTESPKPCKMPKIVDLLARGRAFRHPEEMDRPHAPH [P189L P189L] here?
A: 4

Q: With LRKFDELDAVMSRLPHHSESGQEHERISRIHEEFKKKKNDP [R500G R500G] as the binder, how does the mutation enrichment score (KPNA4_Arm__O00629_68_487; [5]) read?
A: -0.33

Q: With QWASTRGGHKERPTVMLFPFGNLGSPTQVISKPESKEEHAI [R291G R291G] as the binder, how does the mutation enrichment score (KPNA4_Arm__O00629_68_487; [5]) read?
A: 2

Q: How did the mutation enrichment score (KPNA4_Arm__O00629_68_487; [5]) turn out when NALKGRVPPGDSPPGNGSGPQHINDSPFGTLPGSAEPPLTA [R377Q R377Q] was run?
A: 0

Q: For LGSTFVAYLPDYRMKEWSRRKAERLVKYREANGLPIMESNC [E121K E121K], which mutation enrichment score (KPNA4_Arm__O00629_68_487; [5]) is on record?
A: -5

Q: How did the mutation enrichment score (KPNA4_Arm__O00629_68_487; [5]) turn out when KRQQMRQEALMKTDRRRRRPGEEVRALEAEREAIISEKRQK [R1945G R1945G] was run?
A: 2

Q: For RLRVRLLKRTWPLEVPETEPMLGHLRSHLRQSLLCTWGYSS [T22M T22M], which mutation enrichment score (KPNA4_Arm__O00629_68_487; [5]) is on record?
A: 3.1

Q: For SQEAPSFQGTESPKPCKMPKTVDPLARGRAFRHPEEMDRPH [I186T I186T], which mutation enrichment score (KPNA4_Arm__O00629_68_487; number of wild-type / mutant comparisons summed (bounds the score): 18, paper call: diminished) is on record?
A: -5

Q: With KSLPEEDVAEIQHAEEFLIKRESKVAKLDTSQWPLLLKNFD [P40R P40R] as the binder, how does the mutation enrichment score (KPNA4_Arm__O00629_68_487; [6]) read?
A: -3

Q: KNVGESVAAALSPLGIEVDINVEHGGKRSRLTPVSPESSST [D258N D258N] was tested. Which mutation enrichment score (KPNA4_Arm__O00629_68_487; [6]) did it give?
A: -2.1

Q: How did the mutation enrichment score (KPNA4_Arm__O00629_68_487; [6]) turn out when AQLYQHQLNPTLLQQQNKRPHTRITDDQLRVLRQYFDINNS [R2149H R2149H] was run?
A: -1

Q: KSQPVSKPESRASTSTSVSGRRNTGARTLADIKARAQQARA [G1046R G1046R] was tested. Which mutation enrichment score (KPNA4_Arm__O00629_68_487; [6]) did it give?
A: 0

Q: How did the mutation enrichment score [2] turn out when GNIMRVIGEDGQSVYKLTDFAAARELEDDEQFVSLYGTEEY [G159A G159A] was run?
A: 1

Q: Which mutation enrichment score ([3]; paper call: enhanced) does the source give for RKRVAGDLPYGWEQETDENGEVFFVDHINKRTTYLDPRLAF [Q72E Q72E] here?
A: 6

Q: MHLEGRDGRRYPGAPAVELLWTSVPSGLAE [R10W R10W] was tested. Which mutation enrichment score ([3]; paper call: no_effect) did it give?
A: -1

Q: Which mutation enrichment score ([3]; paper call: no_effect) does the source give for MAETVWSTDTGEAVYRSRDPYRNLRLRVHLQRITSSNFL [D19Y D19Y] here?
A: -3

Q: Which mutation enrichment score ([3]; paper call: no_effect) does the source give for PYPEDYGDIEIGSHRSSSSNVGADDGYMPMTPGAALAGSGS [L647V L647V] here?
A: 4.2
